The other results are listed elsewhere or left out.

The target of the assay is T1, MBP-FoxP1dN (Mus musculus, UniProt P58462 326-579).
T1 sequence: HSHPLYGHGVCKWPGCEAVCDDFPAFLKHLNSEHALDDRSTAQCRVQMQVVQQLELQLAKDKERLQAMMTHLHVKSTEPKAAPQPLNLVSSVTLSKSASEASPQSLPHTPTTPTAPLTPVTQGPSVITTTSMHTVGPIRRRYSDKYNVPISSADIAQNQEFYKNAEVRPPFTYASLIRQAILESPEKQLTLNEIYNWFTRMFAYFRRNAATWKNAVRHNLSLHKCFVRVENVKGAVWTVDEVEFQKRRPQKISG
Briefly: PD-seq (MBP pull-down with sequencing); 20 mM Tris-HCl pH 7.5, 100 mM NaCl, 1.5 mM MgCl2, 0.4 uM protein, 0.1 uM dsDNA library, 30 min, room temperature, amylose pull-down; high values mean tight binding. Conditions: protein: recombinant; tags: His6-MBP; chain copies: 2; dsDNA, one strand shown. The procedure, abridged:
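His6-MBP-tagged mouse FoxP3 or FoxP1 fragment lacking the N-terminus, expressed in E. coli, was mixed at 0.4 µM with 0.1 µM Klenow-filled double-stranded degenerate DNA library. Incubation was 30 min at room temperature in Tris pH 7.5 buffer with NaCl and MgCl2. Complexes were caught on amylose resin and washed three times; DNA was released with proteinase K, PCR-barcoded and Illumina-sequenced. Binding is reads-per-million enrichment, pull-down over input, with replicates pooled.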
Take “GATGATTGTTCTCCCAGCTGATGAATTTTTCAGGTCGAGTAAACAAATTTTCCTAATCTTTCTGTTCAAGCGCCATCTAC”: the binding signal is 0.857 RPM ratio (pull-down/input).
Consider “GATGATTGTTCTCCCAGCTGATGAATTGTCGGAATCGAGTAAACAAATTTTCCTAATCTTTCTGTTCAAGCGCCATCTAC”, for which the binding signal was 1.05 RPM ratio (pull-down/input).
The same measure for “GATGATTGTTCTCCCAGCTGATGAATTAGCACTGTCGAGTAAACAAATTTTCCTAATCTTTCTGTTCAAGCGCCATCTAC”: 0.842 RPM ratio (pull-down/input); for “GATGATTGTTCTCCCAGCTGATGAATTTGTTCCCTCGAGTAAACAAATTTTCCTAATCTTTCTGTTCAAGCGCCATCTAC”: 1.2 RPM ratio (pull-down/input).
As to “GATGATTGTTCTCCCAGCTGATGAATTTATCCTTTCGAGTAAACAAATTTTCCTAATCTTTCTGTTCAAGCGCCATCTAC”, the binding signal is 1.11 RPM ratio (pull-down/input).
The same measure for “GATGATTGTTCTCCCAGCTGATGAATTGTGGAAGTCGAGTAAACAAATTTTCCTAATCTTTCTGTTCAAGCGCCATCTAC”: 0.943 RPM ratio (pull-down/input).
“GATGATTGTTCTCCCAGCTGATGAATTTGCTTAATCGAGTAAACAAATTTTCCTAATCTTTCTGTTCAAGCGCCATCTAC”: the binding signal was 1.15 RPM ratio (pull-down/input).
Take “GATGATTGTTCTCCCAGCTGATGAATTGTTTAGATCGAGTAAACAAATTTTCCTAATCTTTCTGTTCAAGCGCCATCTAC”: the binding signal was 2.19 RPM ratio (pull-down/input).
Consider “GATGATTGTTCTCCCAGCTGATGAATTAGACCACTCGAGTAAACAAATTTTCCTAATCTTTCTGTTCAAGCGCCATCTAC”, for which the binding signal was 0.858 RPM ratio (pull-down/input).
As to “GATGATTGTTCTCCCAGCTGATGAATTGTTTACTTCGAGTAAACAAATTTTCCTAATCTTTCTGTTCAAGCGCCATCTAC”, the binding signal was 2.82 RPM ratio (pull-down/input).
On to “GATGATTGTTCTCCCAGCTGATGAATTGCTCGGGTCGAGTAAACAAATTTTCCTAATCTTTCTGTTCAAGCGCCATCTAC”, for which the binding signal was 0.909 RPM ratio (pull-down/input).
For “GATGATTGTTCTCCCAGCTGATGAATTTTACGTGTCGAGTAAACAAATTTTCCTAATCTTTCTGTTCAAGCGCCATCTAC”, the binding signal was 0.853 RPM ratio (pull-down/input).
As to “GATGATTGTTCTCCCAGCTGATGAATTGGTATTCTCGAGTAAACAAATTTTCCTAATCTTTCTGTTCAAGCGCCATCTAC”, the binding signal is 1.02 RPM ratio (pull-down/input).
The same measure for “GATGATTGTTCTCCCAGCTGATGAATTAATTTCGTCGAGTAAACAAATTTTCCTAATCTTTCTGTTCAAGCGCCATCTAC”: 0.944 RPM ratio (pull-down/input); for “GATGATTGTTCTCCCAGCTGATGAATTGACTCACTCGAGTAAACAAATTTTCCTAATCTTTCTGTTCAAGCGCCATCTAC”: 0.92 RPM ratio (pull-down/input); for “GATGATTGTTCTCCCAGCTGATGAATTTGCTCTTTCGAGTAAACAAATTTTCCTAATCTTTCTGTTCAAGCGCCATCTAC”: 0.972 RPM ratio (pull-down/input).
Regarding “GATGATTGTTCTCCCAGCTGATGAATTTATTGGCTCGAGTAAACAAATTTTCCTAATCTTTCTGTTCAAGCGCCATCTAC”, the binding signal is 1.09 RPM ratio (pull-down/input).
“GATGATTGTTCTCCCAGCTGATGAATTGGTGGGCTCGAGTAAACAAATTTTCCTAATCTTTCTGTTCAAGCGCCATCTAC”: the binding signal was 0.802 RPM ratio (pull-down/input).
Regarding “GATGATTGTTCTCCCAGCTGATGAATTGATTGGCTCGAGTAAACAAATTTTCCTAATCTTTCTGTTCAAGCGCCATCTAC”, the binding signal is 0.957 RPM ratio (pull-down/input).
The same measure for “GATGATTGTTCTCCCAGCTGATGAATTGTGCTGGTCGAGTAAACAAATTTTCCTAATCTTTCTGTTCAAGCGCCATCTAC”: 0.972 RPM ratio (pull-down/input); for “GATGATTGTTCTCCCAGCTGATGAATTCGCACAATCGAGTAAACAAATTTTCCTAATCTTTCTGTTCAAGCGCCATCTAC”: 1.15 RPM ratio (pull-down/input).
For “GATGATTGTTCTCCCAGCTGATGAATTATGAGGGTCGAGTAAACAAATTTTCCTAATCTTTCTGTTCAAGCGCCATCTAC”, the binding signal is 0.838 RPM ratio (pull-down/input).
Turning to “GATGATTGTTCTCCCAGCTGATGAATTCATCAGATCGAGTAAACAAATTTTCCTAATCTTTCTGTTCAAGCGCCATCTAC”, the binding signal was 0.931 RPM ratio (pull-down/input).
With “GATGATTGTTCTCCCAGCTGATGAATTACCGTGGTCGAGTAAACAAATTTTCCTAATCTTTCTGTTCAAGCGCCATCTAC” the figure was 0.89 RPM ratio (pull-down/input); with “GATGATTGTTCTCCCAGCTGATGAATTGTAGGTTTCGAGTAAACAAATTTTCCTAATCTTTCTGTTCAAGCGCCATCTAC”, 1.01 RPM ratio (pull-down/input).
Regarding “GATGATTGTTCTCCCAGCTGATGAATTCTACATCTCGAGTAAACAAATTTTCCTAATCTTTCTGTTCAAGCGCCATCTAC”, the binding signal is 0.9 RPM ratio (pull-down/input).
Consider “GATGATTGTTCTCCCAGCTGATGAATTGTACGTGTCGAGTAAACAAATTTTCCTAATCTTTCTGTTCAAGCGCCATCTAC”, for which the binding signal was 0.946 RPM ratio (pull-down/input).
For “GATGATTGTTCTCCCAGCTGATGAATTTATAGAGTCGAGTAAACAAATTTTCCTAATCTTTCTGTTCAAGCGCCATCTAC”, the binding signal was 1.06 RPM ratio (pull-down/input).
With “GATGATTGTTCTCCCAGCTGATGAATTCTATCCCTCGAGTAAACAAATTTTCCTAATCTTTCTGTTCAAGCGCCATCTAC”, the binding signal was 0.859 RPM ratio (pull-down/input).
With “GATGATTGTTCTCCCAGCTGATGAATTACGACAGTCGAGTAAACAAATTTTCCTAATCTTTCTGTTCAAGCGCCATCTAC”, the binding signal was 1.03 RPM ratio (pull-down/input).
Regarding “GATGATTGTTCTCCCAGCTGATGAATTGTACTAGTCGAGTAAACAAATTTTCCTAATCTTTCTGTTCAAGCGCCATCTAC”, the binding signal is 0.939 RPM ratio (pull-down/input).
With “GATGATTGTTCTCCCAGCTGATGAATTTAGTTGGTCGAGTAAACAAATTTTCCTAATCTTTCTGTTCAAGCGCCATCTAC”, the binding signal was 1.03 RPM ratio (pull-down/input).

(Values after PMC12820563, “FoxP3 forms a head-to-head dimer in vivo and stabilizes its multimerization on adjacent microsatellites”.)
